Reference: US11123332B2 (priority 2018, dated 2021)

Tested on: patients with major depressive disorder who have clinically significant suicidal ideation
Assay: prospective randomized clinical trial of gaboxadol compared with ketamine in patients at risk of suicide
[1] = gaboxadol group compared with ketamine group

Row | Structure (SMILES) | day 1 POMS depression subscale scores [1] | day 1 POMS total mood disturbance score [1] | decrease in suicidal ideation at 230 minutes after the infusion [1] | average SSI score at day 1 (gaboxadol group compared with ketamine group, 24 hours after administration) | proportion of responders on the SSI at day 1 (gaboxadol group vs ketamine group) | Cohen's d for the difference in mean group change (SSI) (gaboxadol group vs ketamine group, baseline to day 1) | non-remitters (day 1 SSI) in the group (ketamine group, remission = day 1 SSI >50% below baseline and less than 4)
1 | Oc1noc2c1CCNC2 [gaboxadol, 4,5,6,7-tetrahydroisoxazolo (5,4-c) pyridin-3-ol] | greater improvement | greater improvement | greater | lower | significantly higher | greater than medium effect size | 
2 | CNC1(c2ccccc2Cl)CCCCC1=O (stereo not shown) [ketamine] |  |  |  |  |  |  | 35 of 40
